{"source": "the supplement of paper PMC8792480", "key": {"[1]": {"test_system": "NCI-H460", "assay": "cell-surface PD-L1 MFI ratio relative to radiation alone (isotype-subtracted); higher = higher PD-L1 surface expression", "conditions": "inducer: radiation 8 Gy; 10 µM; 24 h", "procedure": "(§1)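 A549 and H460 NSCLC cells were treated with each library drug at 10 uM, then with radiation (8 Gy) or cisplatin (4 uM), and incubated for 24 h. Cell-surface PD-L1 was measured by flow cytometry as an MFI ratio: (MFI drug+inducer - MFI isotype)/(MFI inducer alone - MFI isotype). Hits were defined as ratio < 0.75.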"}, "[2]": {"test_system": "A549", "assay": "cell-surface PD-L1 MFI ratio relative to cisplatin alone (isotype-subtracted); higher = higher PD-L1 surface expression", "conditions": "inducer: cisplatin 4 uM; 10 µM; 24 h", "procedure": "as §1"}, "[3]": {"test_system": "NCI-H460", "assay": "cell-surface PD-L1 MFI ratio relative to cisplatin alone (isotype-subtracted); higher = higher PD-L1 surface expression", "conditions": "inducer: cisplatin 4 uM; 10 µM; 24 h", "procedure": "as §1"}}, "note": "The other results are listed elsewhere or left out. Repeats are few or missing, and single values can be far off.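 For cell-surface PD-L1 MFI ratio relative to radiation alone (isotype-subtracted) in this document: surface PD-L1 on NSCLC cells stained with a PE-labelled anti-human PD-L1 antibody before flow cytometry, screening a library of roughly two hundred mostly kinase and epigenetic inhibitors.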", "data": [{"molecule": "CC(C)N(C[C@H]1O[C@@H](n2cnc3c(N)ncnc32)[C@H](O)[C@@H]1O)[C@H]1C[C@@H](CCc2nc3cc(C(C)(C)C)ccc3[nH]2)C1", "note": "[Pinometostat (EPZ5676)]", "values": [{"measurement": "cell-surface PD-L1 MFI ratio", "setting": "[1]", "result": "inactive: 1.02"}, {"measurement": "cell-surface PD-L1 MFI ratio", "setting": "[2]", "result": "active: 0.453"}, {"measurement": "cell-surface PD-L1 MFI ratio", "setting": "[3]", "result": "active: 0.659"}]}, {"molecule": "O=C(O)C(Cc1ccccc1[N+](=O)[O-])=NNc1nc(-c2ccc(Cl)c(Cl)c2)cs1", "note": "(mixture of isomers)", "values": [{"measurement": "cell-surface PD-L1 MFI ratio", "setting": "[1]", "result": "inactive: 1.13"}, {"measurement": "cell-surface PD-L1 MFI ratio", "setting": "[2]", "result": "inactive: 1.68"}, {"measurement": "cell-surface PD-L1 MFI ratio", "setting": "[3]", "result": "inactive: 1.06"}]}, {"molecule": "CC(C)(C)C[C@@H]1N[C@@H](C(=O)N[C@H]2CC[C@H](O)CC2)[C@H](c2cccc(Cl)c2F)[C@]12C(=O)Nc1cc(Cl)ccc12", "values": [{"measurement": "cell-surface PD-L1 MFI ratio", "setting": "[1]", "result": "inactive: 1.1"}, {"measurement": "cell-surface PD-L1 MFI ratio", "setting": "[2]", "result": "active: 0.63"}, {"measurement": "cell-surface PD-L1 MFI ratio", "setting": "[3]", "result": "active: 0.63"}]}, {"molecule": "O=C(/C=C\\n1cnc(-c2cc(C(F)(F)F)cc(C(F)(F)F)c2)n1)NNc1cnccn1", "note": "[Selinexor (KPT-330)]", "values": [{"measurement": "cell-surface PD-L1 MFI ratio", "setting": "[1]", "result": "inactive: 1.04"}, {"measurement": "cell-surface PD-L1 MFI ratio", "setting": "[2]", "result": "inactive: 0.855"}, {"measurement": "cell-surface PD-L1 MFI ratio", "setting": "[3]", "result": "inactive: 0.984"}]}, {"molecule": "FC(F)(F)c1ccc(CNc2ccc(Cc3c[nH]c4ncc(Cl)cc34)cn2)cn1", "note": "[Pexidartinib (PLX3397)]", "values": [{"measurement": "cell-surface PD-L1 MFI ratio", "setting": "[1]", "result": "inactive: 0.887"}, {"measurement": "cell-surface PD-L1 MFI ratio", "setting": "[2]", "result": "inactive: 1.18"}, {"measurement": "cell-surface PD-L1 MFI ratio", "setting": "[3]", "result": "inactive: 1.34"}]}, {"molecule": "Cc1[nH]c(/C=C2\\C(=O)Nc3ccccc32)c(C)c1CCC(=O)O", "note": "[Orantinib (TSU-68, SU6668)]", "values": [{"measurement": "cell-surface PD-L1 MFI ratio", "setting": "[1]", "result": "inactive: 1.05"}, {"measurement": "cell-surface PD-L1 MFI ratio", "setting": "[3]", "result": "inactive: 1.02"}]}, {"molecule": "Cc1cccc(CC(=O)N2CCc3c2ccc(-c2cn(C)c4ncnc(N)c24)c3F)n1", "values": [{"measurement": "cell-surface PD-L1 MFI ratio", "setting": "[1]", "result": "inactive: 1.12"}, {"measurement": "cell-surface PD-L1 MFI ratio", "setting": "[3]", "result": "inactive: 1.28"}]}, {"molecule": "Cc1cc(F)c(C(=O)Nc2cccc(-c3nncn3C(C)C)n2)cc1-n1cnc(C2CC2)c1", "note": "[Selonsertib (GS-4997)]", "values": [{"measurement": "cell-surface PD-L1 MFI ratio", "setting": "[1]", "result": "inactive: 0.982"}, {"measurement": "cell-surface PD-L1 MFI ratio", "setting": "[3]", "result": "inactive: 0.816"}]}, {"molecule": "CC(C)C[C@H](NC(=O)[C@H](Cc1ccccc1)NC(=O)c1cnccn1)B(O)O", "note": "[Bortezomib (PS-341)]", "values": [{"measurement": "cell-surface PD-L1 MFI ratio", "setting": "[1]", "result": "active: 0.673"}, {"measurement": "cell-surface PD-L1 MFI ratio", "setting": "[3]", "result": "inactive: 1.53"}]}, {"molecule": "Nc1ccc(C(=O)Nc2cccc(-c3nc(N4CCOCC4)c4oc5ncccc5c4n3)c2)cn1", "values": [{"measurement": "cell-surface PD-L1 MFI ratio", "setting": "[1]", "result": "inactive: 0.81"}, {"measurement": "cell-surface PD-L1 MFI ratio", "setting": "[3]", "result": "active: 0.627"}]}, {"molecule": "CC(C)(C)c1nc(-c2ccc(NC(=O)Nc3cccc(C(F)(F)F)c3)c3ccccc23)c2c(N)nccn12", "note": "[kira6]", "values": [{"measurement": "cell-surface PD-L1 MFI ratio", "setting": "[1]", "result": "active: 0.667"}, {"measurement": "cell-surface PD-L1 MFI ratio", "setting": "[3]", "result": "active: 0.734"}]}, {"molecule": "C[C@@H](Oc1ccc2[nH]nc(/C=C/c3cnn(CCO)c3)c2c1)c1c(Cl)cncc1Cl", "values": [{"measurement": "cell-surface PD-L1 MFI ratio", "setting": "[1]", "result": "inactive: 1.36"}, {"measurement": "cell-surface PD-L1 MFI ratio", "setting": "[3]", "result": "inactive: 1.21"}]}, {"molecule": "CC(C)(C)Cn1c(N)nc2ccc(-c3[nH]c(C(C)(C)C)nc3-c3ccc(F)cc3)nc21", "values": [{"measurement": "cell-surface PD-L1 MFI ratio", "setting": "[1]", "result": "inactive: 1.06"}, {"measurement": "cell-surface PD-L1 MFI ratio", "setting": "[3]", "result": "inactive: 0.96"}]}]}
